Reference: the supplement of paper PMC12632987
Over roughly 1,800 sequences, “median log2 fold change of GCK-ALFA target abundance (FLAG IP / Myc IP barcode read proportion)” has its median near 0.14; the lowest 2% begin near -0.84. The list shows a part of the results.

B1: traf2_out_18_3_1909 (protein)
chain: SEEERKKVSDEIDKIVDEATAKAREALDRLEREHPEYAAEARRLRADLDAGAGPFGILEALAELAERAGDEEEAAEIREFLRKKKKEFQKLVDKYEELLK
B2: traf2_out_15_17_1311 (protein)
chain: SAEAALNEALRKAMNEVLDKDEELLDKLIKEAREEAKKIGKLEELEKLIEESKDYSVISRILILAQWAKEKGLEELAKKLEEAAEEARKARSEAARAVEK
B3: traf2_out_1_27_1000 (protein)
chain: STEEERELLRRANREIGRASPEEQVEIIKRTLREALERGIDSPEHIAVVLILMLGDEETRERAIEAAREVLREAGISEEAIERMERRVRSGWERLDRLLA
B4: traf2_out_11_169_819 (protein)
chain: EEAEKNRKINDFALEKNDEAKEKLLEHAKALAKKAGLDVEEVEKIFEENKNKSLSAVAAALIDYFRSKGKEEEAAAVLAKYEELKEEINKAVTEKIKELE
B5: traf2_out_6_3_2532 (protein)
chain: SHMSLLKDAKTVLENMGITTIEELKALVKAEVNAIKKLISRKDVDEADLAGARSVVALSRAMVEVAKETLPDFTEEDYEELNKLLEETEKLIKEREEKLK
B6: traf2_out_13_95_1090 (protein)
chain: SKEVAEKIMEIADKMLDKVLEELKKLLEKAKKDPELKPEVEKALYLAETQSINEAIALLKELAKKYPEYKEEFEETIEKIEEIKREAGKEVAKILKEEEE
B7: traf2_out_13_95_1204 (protein)
chain: EEEKTKKIREVTNAIADELLDAADATAAAVEAATGDAAAAAAVRAALRGHGVSAAIQTLRDLAAADPAHAATYEAAAAALEAARRAAGRRVAEELKRIEE
B8: traf2_out_3_89_2284 (protein)
chain: SHHMEALIEEARKIAEAYAKGFRKSLTFVAKQMVAEGHSLETLEGVANAAKTALVEEFRESLKERGLDEETIKEIVEELRKKLDEIVKEVIAEAKKARAA
B9: traf2_out_20_3_2143 (protein)
chain: EELEKKLEEELEKALKLLEEAAKLADKETAAVLKKLIKELEASKELSYSDRLVTLSEIRRTVLELAEKARAAGDEKLAELLEKAAEALNRAMNIVMKIIE
B10: traf2_out_17_162_1579 (protein)
chain: SELEEKLKELEEKLKELEKELKRFKEELKNLENKSKEELTDLLVEVSEARREALQLAEELKKLEKEIGEEKAKELIEKAEEIAEEFQRIANEIYKELLKK
B11: traf2_out_19_16_1973 (protein)
chain: KEERIEKIEKELEEIKKEVEKLEKYFEENEETLTREELSDLLVEASELKRKAQEILEELEKLKDYDPERVEKLKKEAEEIIEEAQRLMNRLVDKYLELLK
B12: traf2_out_17_178_1704 (protein)
chain: TKEEARRRISEATDEMIDLAEAAAQRLLEIAEEEGDLSPEELAELRRARRLGSARTTLALMERAIPRSRRAAEVQALLDDFRARYAELSREIAEALKEYE
B13: traf2_out_19_146_1961 (protein)
chain: SEEEKLKAFREEAEKRLKDLLESIDYIAKNFGYEEAALYATGAASSFTDRVEAEAAELKKTLSPEMQKKLDALAEELIEKAKKELTKKKEELEKKAAKEK
B14: traf2_out_13_95_1082 (protein)
chain: SKETNEKIMEISDEMLEKGKEILKELAEKVADDPEAKARVEEALHLLEHHGINAAIHLLEKMAEEDEEYKELLEEAIEKLKKIKREAGKKVAELLKEEEE
B15: traf2_out_13_95_1147 (protein)
chain: SRELAEKIMEIADEMLDKILEKLEELLKKAKKAGLKEEEMEKVLYLARYQSVNEAIHLLKELAKEYPELKEELEKTIKELEEIRREAGREVARLIKEEEE
B16: traf2_out_13_95_1197 (protein)
chain: EEEKTKKIREVTNAIADELLARADELAARLEAETGDAAAAARVRAALLGHGVNAAIAVLRELAAADPAHAAAYRAAAAELEAARREAGRRVAEKLKEIEE
B17: traf2_out_13_95_1176 (protein)
chain: SEETKKKINEIADEMLDKVEAILTELQKEVADDPEVAAEVEAILKTARTQGINTALGRLRELQAAHPEHAEKLTAAIDKIEAIREEAGKKVAEILKEEKE
B18: traf2_out_11_169_868 (protein)
chain: EEKEFNRKLIDFALEVEDEAKKELEEFALKLAKEYGLDVEEVKAIFEKNKNSSLSAVASALITYFESKGKEEAAKKILEKYDELKEEINKKVSAKIKELE
B19: traf2_out_1_27_1003 (protein)
chain: SDEEFRELLRRANKEIGRATPEEQIEIIEEAVREALERGLDSPELVAVNLILSLGDRETRERAIERVEEVLREAGLSEERIELMRRRVRSGWERLEKLLA
B20: traf2_out_1_33_1033 (protein)
chain: AAAKERRSLQIANKAASELYKVVRKELEEIRKLLEEGASLEEIEKKIEEARKRVEKKAEEILKEVKATEDEETVNLVESVLTSLIEIFDRELEELLKEAK
B21: traf2_out_13_95_1092 (protein)
chain: SKKVAEEINKIADKMLDESLKLLEELLKIAKKKGKIEEEIEEAIRLAKYRSINEAIHLLKELAKKYPEFKEELEATIEKIEEIKRKAGKEVAKILKKEEE
B22: traf2_out_13_95_1056 (protein)
chain: TLELAKKINEIADKAEEEMLKVLKEAAAKVADDPEAKAVFEEAEKLVKTRGINEALHLLREAAKADPAHKALFEETIAKLEEIKRKTGKEVAKLIKEYEE
B23: traf2_out_17_162_1477 (protein)
chain: MSIEEELKKLKEELKEIKEKAKELEEKLEKLEEMSYEELTDLLVEASELRRKALQLAEEFKEMAPLIGEEEAKKLAEEAEEIAERLQRIANKIYKEIEKK
B24: traf2_out_17_162_1489 (protein)
chain: GELEERLKELKKELEELKKKLKELKEKLKDLKNKSKEELTDLLVEVSELRRRALELAEELKELYEKTGDEELKELIKEAEELAEELQRLANKIYEELLKK
B25: traf2_out_20_38_2047 (protein)
chain: KEEEEEKKYNELIRKAAREGDEEADRRLEELRAAGVSPEEILERTTEEAVEKLKSVGAEDNAERIRLRAAHYREEGTYLEGAERIIISAKVALAVQEYLK
B26: traf2_out_16_104_1409 (protein)
chain: SAERQARFDAIIAELNAIADELGRLANEIYKLMETASAADKEKLSDALVDASELRRRAREAAIAAEEARKTGGDLAEQEAALARLTAEAAAVKAKAAALK
B27: traf2_out_18_3_1931 (protein)
chain: SEEERKEVSDKIDEIVDDARARAERELERAREELPEKREEIDRLRAALEAGAAPFGILDALAELYEEAGKEEEAKEIEEYLSEKRKEMQELVDEYEKLIK
B28: traf2_out_20_3_2147 (protein)
chain: EELERELAEELERAKALLAEAAALADPETAARLEALRERLEASRALSPSDQLVVVSEVRREVRLLAQEARAAGDEELAALLEEAAAALNRAANLLMRIIE
B29: traf2_out_16_177_1445 (protein)
chain: ELSEVMDKLVIYSKIARAAELALEGREEEAKKELKEAEKEAKEAGDEEALKLIKEIRALIEANTPEAKKRLAKILKEVRKKANELAEKAEELLKERAKKE

Molecular target: T1, TRAF2, Q12933
T1 chain: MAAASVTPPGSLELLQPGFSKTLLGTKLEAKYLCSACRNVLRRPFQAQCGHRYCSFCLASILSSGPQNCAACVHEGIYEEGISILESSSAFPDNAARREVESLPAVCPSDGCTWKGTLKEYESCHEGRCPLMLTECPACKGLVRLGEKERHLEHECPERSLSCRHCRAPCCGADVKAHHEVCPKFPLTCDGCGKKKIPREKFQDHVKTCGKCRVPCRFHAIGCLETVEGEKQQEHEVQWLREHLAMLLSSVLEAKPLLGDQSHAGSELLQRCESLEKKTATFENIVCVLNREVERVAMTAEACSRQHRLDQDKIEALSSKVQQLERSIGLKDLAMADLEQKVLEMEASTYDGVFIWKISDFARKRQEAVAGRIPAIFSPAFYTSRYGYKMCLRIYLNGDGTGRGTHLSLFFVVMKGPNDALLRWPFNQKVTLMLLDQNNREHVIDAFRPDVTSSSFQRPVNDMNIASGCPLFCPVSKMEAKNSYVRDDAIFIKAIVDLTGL
Test: median log2 fold change of GCK-ALFA target abundance (FLAG IP / Myc IP barcode read proportion) (log2 ratio); each designed protein is fused to an ALFA-tag nanobody in HEK293 cells to bring the named protein to FLAG-tagged glucokinase (GCK); Myc marks an untargeted standard; higher = target protein stabilised (more abundant)
Conditions: target protein: 3xFLAG-MCP-GCK-ALFA reporter; HEK293 landing pad (RPLP)
Outline: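 HEK293 landing-pad cells received a recombined binder library fused to the ALFA nanobody and were induced with 2 μg mL^−1 doxycycline, then transfected with a plasmid encoding a FLAG-tagged target and a Myc-tagged standard. Lysates were collected after 48 h for anti-FLAG and anti-Myc immunoprecipitation, and the circular RNA barcodes were reverse transcribed, amplified and sequenced. Target abundance for each binder is the median log2 ratio of FLAG to Myc barcode read proportions. Barcodes had to reach a proportion of at least 10^−7 in both replicates, each binder needed at least 3 barcodes per replicate, a pseudocount of 10^−6 was applied, and the two replicates were pooled.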

Row | Binder | median log2 fold change
1 | B1 | 0.0153
2 | B2 | 0.269
3 | B3 | 0.155
4 | B4 | -0.00406
5 | B5 | -1.3
6 | B6 | -0.159
7 | B7 | -0.0797
8 | B8 | -0.43
9 | B9 | -0.0877
10 | B10 | 0.462
11 | B11 | 0.182
12 | B12 | -0.212
13 | B13 | 0.0223
14 | B14 | -0.0214
15 | B15 | -0.509
16 | B16 | 0.104
17 | B17 | 0.203
18 | B18 | -0.416
19 | B19 | 0.164
20 | B20 | -0.483
21 | B21 | -0.0309
22 | B22 | -0.0095
23 | B23 | 0.0704
24 | B24 | 0.361
25 | B25 | 0.277
26 | B26 | 0.264
27 | B27 | 0.304
28 | B28 | 0.226
29 | B29 | -0.0821
